Test results reported in PubChem BioAssay AID2546 (National Center for Advancing Translational Sciences (NCATS), 2010).
Screen size: about 310,000 compounds; about 11,000 (3.5%) were called active. Inconclusive results, whose numbers are uncertain, are shown with a selection of clear calls. The call rests on the fitted dose curve; in most records, active means well fitted inhibition curve with a large enough effect; inconclusive means small, poorly fitted or top-dose-only effect, or effect the other way; inactive means flat fitted curve, though single readings scatter. Potencies of inconclusive entries are left out as doubtful fits.

Test: VP16 counterscreen qHTS for inhibitors of ROR gamma transcriptional activity;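 further: Gal4-VP16 expression switched on by copper sulfate through the metallothionein promoter; nearly all actives have a fitted effect of over 50% in size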
Conditions: Drosophila S2 Gal4-VP16 UAS-luciferase, luminescence, 20 h; activity, negative = inhibition: at 53.6 µM (top of the series)
On the % scale 0 is the no-effect control and ±100 the full control effect; potency means the concentration at half of the fitted maximal effect; tags describe the fitted curve by direction and shape.

Row | SMILES | Potency | activity, negative = inhibition
1 | Cc1ccccc1C(=O)NC(=S)Nc1ccc(S(=O)(=O)N(C)c2ccccc2)cc1 | inconclusive [inhibitor, single point] | 
2 | CC(=O)n1cc(/C=N/NC(=O)c2ccccc2O)c2ccccc21 | active: 3.55 µM | 
3 | N/C(Cc1cccc2ccccc12)=N\OC(=O)c1ccc2c(c1)OCO2 | inconclusive [inhibitor, partial curve] | 
4 | Cc1ccc2c(c1)sc(C)[n+]2CCCS(=O)(=O)[O-] |  | inactive: 4.38%
5 | CCCC(=O)Nc1ccc(-c2nc3cc(C)ccc3o2)cc1 | active: 2.82 µM | 
6 | NNC(=O)c1ccc(COc2ccc([N+](=O)[O-])cc2)o1 |  | inactive: 2.52%
7 | CC(C)CN1CN(Cc2ccccc2)CNC1=S | active: 5.62 µM | 
8 | COc1cccc(NC(=S)Nc2cccc3ccccc23)c1 | active: 6.31 µM | 
9 | COc1cc2cc(CN(Cc3cccs3)C(=S)Nc3ccc(C)cc3)c(=O)[nH]c2cc1OC | inconclusive [activator, single point] | 
10 | Cc1ccc(-c2nc(C3CCCN(S(=O)(=O)c4ccc(C)cc4)C3)no2)cc1 (configuration not stated) | inconclusive [inhibitor, single point] | 
11 | CC1CCN(c2ccc(/C=N\Nc3nncn3N)cc2[N+](=O)[O-])CC1 | inconclusive [inhibitor, single point] | 
12 | CCCOc1ccc(-c2nn(-c3ccccc3)cc2/C=C2\SC(N)=NC2=O)cc1 |  | inactive: -12.4%
13 | NC(=S)C(c1ccccc1)c1ncc(C(F)(F)F)cc1Cl (configuration not stated) | inconclusive [inhibitor, single point] | 
14 | CCCCOC(=O)c1ccc(NC(=O)c2nn(C)cc2Br)cc1 | active: 3.55 µM | 
15 | Cc1cccc2c1N(CCOc1ccc(C(C)(C)C)cc1)C(=O)C2=O | inconclusive [inhibitor, single point] | 
16 | CCOc1cccc2c1OC(c1cc(OC)c(OC)c(OC)c1)N1N=C(c3ccc(C)o3)CC21 (configuration not stated) | inconclusive [activator, single point] | 
17 | CCCC(=O)N1CCN(c2nc3ccc(Cl)cc3s2)CC1 |  | inactive: -12.5%
18 | Cc1ccc2nc(C)cc(Nc3ccc([N+](=O)[O-])cc3)c2c1 | active: 5.01 µM | 
19 | COc1ccc(C(=O)OCCc2ccc(O)cc2)cc1 | active: 12.6 µM | 
20 | O=C(c1ccc(Cl)cc1)C1CCCN(Cc2cccn2-c2ccccn2)C1 (configuration not stated) |  | inactive: 1.32%
21 | Cc1ccc(-c2ccc(NC(=O)C3C4C=CC(C4)C3C(=O)O)cc2)o1 (configuration not stated) | inconclusive [inhibitor, single point] | 

Row | SMILES | Potency | activity, negative = inhibition
22 | C=CCN=c1scc(-c2ccc3c(c2)NC(=O)CO3)n1/N=C(\C)c1ccccn1 | inconclusive [inhibitor, single point] | 
23 | CCOC(=O)Cn1cc(/C=C(\C#N)C(=O)N2CCOCC2)c2ccccc21 | inconclusive [activator, single point] | 
24 | CCc1ccc(OCC(=O)N/N=C(\C)c2ccc(O)cc2O)cc1 | inconclusive [inhibitor, single point] | 
25 | CCOc1ccccc1CNc1ncnc2ccc(-c3c(C)noc3C)cc12 | inconclusive [inhibitor, single point] | 
26 | Cc1ccc(C(=O)O)cc1N1C(=O)c2cccc3c([N+](=O)[O-])ccc(c23)C1=O | active: 6.31 µM | 
27 | CC(=O)c1ccc(/C=C/c2nc3ccccc3n2C)o1 | inconclusive [inhibitor, single point] | 
28 | COc1cc2c(cc1NC(=O)COC(=O)/C=C/c1ccccc1)oc1ccccc12 | inconclusive [inhibitor, partial curve] | 
29 | COC(=O)c1ccc(-c2nc3ccccc3[nH]2)cc1 | inconclusive [inhibitor, partial curve] | 
30 | Nc1ccc2c(c1)C(=O)N(CC1CCCO1)C2=O (configuration not stated) |  | inactive: 22.5%
31 | CCCn1c2ccccc2c2cnn(CC(=O)NCCCN3C(C)CCCC3C)c(=O)c21 (configuration not stated) |  | inactive: -0.364%
32 | Cc1cc(C)cc(NC(=S)N(CCCN2CCN(C)CC2)Cc2cccs2)c1 | inconclusive [inhibitor, single point] | 
33 | COc1cccc(N2C(=O)CC(Sc3nc(C)cc(C)n3)C2=O)c1 (configuration not stated) | inconclusive [inhibitor, partial curve] | 
34 | Cc1cn(Cc2ccccc2Cn2cc(C)c(=O)[nH]c2=O)c(=O)[nH]c1=O |  | inactive: 0.0667%
35 | O=C(NCC1CCCO1)c1cccc(-n2cnnn2)c1 (configuration not stated) |  | inactive: -8.99%
36 | Cc1oc2c(c1C(=O)O)C(=O)c1ccccc1C2=O | inconclusive [inhibitor, single point] | 
37 | CC(=O)c1ccc(OCc2cc(C(=O)N(C)CCOc3ccc(C)cc3)no2)cc1 | inconclusive [inhibitor, single point] | 
38 | CC(=O)c1cccc(NC(=S)NC(=O)c2cccc(C)c2)c1 | inconclusive [inhibitor, single point] | 
39 | CC(CNS(=O)(=O)c1ccccc1)(c1ccccc1)N1CCOCC1 (configuration not stated) |  | inactive: 8.95%
40 | Cc1ccc(Cl)cc1NC(=O)C(Cc1ccccc1)N1C(=O)C2C3CCC(C3)C2C1=O (configuration not stated) | active: 79.4 µM | 
41 | O=C(COc1cccc2ccccc12)Nc1nc2ccccc2[nH]1 | active: 11.2 µM | 
42 | c1ccc(Cc2nnc(-c3ccccc3)o2)cc1 | inconclusive [inhibitor, partial curve] | 
